This note sets out measurements from a collection of fitness landscapes (doi:10.1126/science.1257360).

Sequences and labels used below:
B1: PhoQ; a variant is named by its letters at X, in order, P23837 (parent)
chain: MKKLLRLFFPLSLRVRFLLATAAVVLVLSLAYGMVALIGYSVSFDKTTFRLLRGESNLFYTLAKWENNKLHVELPENIDKQSPTMTLIYDENGQLLWAQRDVPWLMKMIQPDWLKSNGFHEIEADVNDTSLLLSGDHSIQQQLQEVREDDDDAEMTHSVAVNVYPATSRMPKLTIVVVDTIPVELKSSYMVWSWFIYVLSANLLLVIPLLWVAAWWSLRPIEALAKEVRELEEHNRELLNPATTRELTSLVRNLNRLLKSERERYDKYRTTLTDLTHSLKTPLXXLQXXLRSLRSEKMSVSDAEPVMLEQISRISQQIGYYLHRASMRGGTLLSRELHPVAPLLDNLTSALNKVYQRKGVNISLDISPEISFVGEQNDFVEVMGNVLDNACKYCLEFVEISARQTDEHLYIVVEDDGPGIPLSKREVIFDRGQRVDTLRPGQGVGLAVAREITEQYEGKIVAGESMLGGARMEVIFGRQHSAPKDE

The other results are listed elsewhere or left out. Some results are limits rather than exact numbers.

The variants in the assay derive from B1. Description: enrichment ratio after two sorts for PhoP signalling (ratio (wild type AVST 3.29)); higher = more functional. The following applies: with PhoP (E. coli).
For QVRH, the enrichment ratio was not above 0.25.

Take PKDK: the enrichment ratio was not above 0.25.

Consider IRGC, for which the enrichment ratio was not above 0.25.

In the case of PTWE, the enrichment ratio is not above 0.25.

On to AQCW, for which the enrichment ratio amounted to 5.59. Next, GLQI: not above 0.25. Next, LNAA: not above 0.25. Next, GVLQ: 6.13; GRTD: not above 0.25; ILDV: not above 0.25. Consider SESA, for which the enrichment ratio was determined as 8.46. With GSAL, the enrichment ratio came out at 6.5. As to QFGT, the enrichment ratio was not above 0.25. Next, SLIS: not above 0.25. Next, WERK: not above 0.25. Next, NLNG: not above 0.25; NEPA: not above 0.25. In the case of RWYQ, the enrichment ratio was not above 0.25. Turning to RTAR, the enrichment ratio was not above 0.25.

Regarding TVYE, the enrichment ratio was not above 0.25.

On to IKEY, for which the enrichment ratio is not above 0.25. Next, RLGS: not above 0.25; LWVQ: not above 0.25; SCKI: not above 0.25. Consider YCNP, for which the enrichment ratio was not above 0.25.

Turning to INKT, the enrichment ratio is not above 0.25. Next, TMKF: not above 0.25; AKVH: 0.853; YPER: not above 0.25. Next, FGMK: not above 0.25; ARHG: not above 0.25. Next, ACFR: not above 0.25; QTIG: not above 0.25. As to IGHC, the enrichment ratio is not above 0.25. In the case of YDDN, the enrichment ratio was not above 0.25. Next, MDKI: not above 0.25; QYAY: not above 0.25. Next, ANIT: not above 0.25; LRFH: not above 0.25. For the variant VYFK, the enrichment ratio was not above 0.25.

WANR: the enrichment ratio is not above 0.25. Next, MVDD: not above 0.25. Take DSQV: the enrichment ratio was not above 0.25.

With HRMN, the enrichment ratio was not above 0.25. For the variant MHEM, the enrichment ratio is not above 0.25.

For SVER, the enrichment ratio is not above 0.25. Take QVHC: the enrichment ratio was not above 0.25. Next, MRYT: not above 0.25; NNTR: not above 0.25; YFWD: not above 0.25. Next, AFYC: not above 0.25. Next, TRCQ: 5.19; DDYP: not above 0.25. In the case of YFPA, the enrichment ratio was not above 0.25.

On to WPGA, for which the enrichment ratio is not above 0.25. Next, WTVI: not above 0.25; ISHE: not above 0.25. Regarding NEAP, the enrichment ratio was not above 0.25.

For NVTY, the enrichment ratio was not above 0.25.

With GEYC, the enrichment ratio was not above 0.25. VEKS: the enrichment ratio was not above 0.25. In the case of ALCF, the enrichment ratio was 13.2.

Regarding SPAM, the enrichment ratio is not above 0.25.

Turning to VKYP, the enrichment ratio is not above 0.25. Next, FRSV: not above 0.25.

Turning to DKFV, the enrichment ratio is not above 0.25.

In the case of QASY, the enrichment ratio is not above 0.25. Next, WVFQ: not above 0.25. On to KEII, for which the enrichment ratio was not above 0.25. Next, YQGW: not above 0.25; EKKA: not above 0.25. Next, IPSR: not above 0.25; LEGY: not above 0.25. Consider KAPV, for which the enrichment ratio was not above 0.25. On to HKPR, for which the enrichment ratio was not above 0.25.

For PHMH, the enrichment ratio was not above 0.25. Next, FRNG: not above 0.25. Next, LIFY: not above 0.25; DQLL: not above 0.25; KYKQ: not above 0.25.

In the case of LDKR, the enrichment ratio is not above 0.25. Take DSGY: the enrichment ratio was not above 0.25. Take QYHM: the enrichment ratio is not above 0.25. As to HQDA, the enrichment ratio was not above 0.25.

In the case of RGED, the enrichment ratio is not above 0.25.

For MMEV, the enrichment ratio is not above 0.25. Next, INFK: not above 0.25; PKWC: not above 0.25; GDVT: 5.28. For the variant SCRA, the enrichment ratio is not above 0.25. Next, TQMT: 14.6. Next, VWTV: not above 0.25; PIDN: not above 0.25.

Consider AWVN, for which the enrichment ratio was not above 0.25. Consider EFQG, for which the enrichment ratio was not above 0.25. Turning to AFYM, the enrichment ratio is not above 0.25. Next, YDFD: not above 0.25; YAHW: not above 0.25. In the case of GTLL, the enrichment ratio is 12.4.

Turning to NKDF, the enrichment ratio is not above 0.25. Next, TDGH: 1.65.

With IEHT, the enrichment ratio was not above 0.25. Next, MVQC: not above 0.25; EDNM: not above 0.25. For IYKP, the enrichment ratio was not above 0.25. Next, DDCK: not above 0.25. On to FRAF, for which the enrichment ratio is not above 0.25.

In the case of WPKF, the enrichment ratio is not above 0.25. Next, DIIF: not above 0.25; DFQN: not above 0.25; MWRL: not above 0.25. Next, VAWG: not above 0.25; ISRI: not above 0.25. On to HPEQ, for which the enrichment ratio is not above 0.25. Next, HQCM: 6.76. Next, MLSC: not above 0.25; KTCF: not above 0.25. With RTLY, the enrichment ratio was not above 0.25. Regarding GEQH, the enrichment ratio is not above 0.25. Next, SCNS: not above 0.25; VGCN: not above 0.25; PYTP: not above 0.25. Regarding KPNS, the enrichment ratio was not above 0.25. Next, EGYC: not above 0.25; IIYE: not above 0.25; WGAR: not above 0.25. Next, GDLR: not above 0.25; SQYI: not above 0.25. Next, YGVD: not above 0.25; PEYP: not above 0.25; VDFC: not above 0.25. Take YYRE: the enrichment ratio was not above 0.25.

In the case of WPHK, the enrichment ratio is not above 0.25. Next, EFKI: not above 0.25.

As to FSFN, the enrichment ratio is not above 0.25. Next, DDIG: not above 0.25; KCAP: not above 0.25. Next, LIHW: not above 0.25; AELM: 2.01; TEFS: 10.9. Next, FFQT: not above 0.25; FPQG: not above 0.25. With KDPR, the enrichment ratio is not above 0.25. For PDSE, the enrichment ratio is not above 0.25. For the variant TCCG, the enrichment ratio was found to be 3.92. In the case of MYIC, the enrichment ratio was not above 0.25.

In the case of FLNG, the enrichment ratio is not above 0.25.

Turning to WDFN, the enrichment ratio was not above 0.25. With GSDD, the enrichment ratio was not above 0.25. Next, HDYD: not above 0.25; FCTT: not above 0.25. Next, VNGQ: not above 0.25; NEDR: not above 0.25.

Regarding GWVW, the enrichment ratio was not above 0.25.

For the variant RSSM, the enrichment ratio is not above 0.25. Take SMHT: the enrichment ratio is not above 0.25. For SCVM, the enrichment ratio came to 8.76. SIQG: the enrichment ratio was 7.09. Next, NATE: not above 0.25. As for EYSY, the enrichment ratio was not above 0.25.

With FGAH, the enrichment ratio is not above 0.25. Next, EPRP: not above 0.25; NQEH: not above 0.25. Take WHRF: the enrichment ratio is not above 0.25. Next, QECF: not above 0.25; PKNA: not above 0.25.

EYFF: the enrichment ratio was not above 0.25. For TLYV, the enrichment ratio amounted to 0.293.

On to KHAY, for which the enrichment ratio was not above 0.25. As for YRIC, the enrichment ratio is not above 0.25. Next, KRNP: not above 0.25. Next, MTTM: 18.5; QAHH: not above 0.25. Take YAHR: the enrichment ratio is not above 0.25. Take PMDF: the enrichment ratio was not above 0.25. For the variant QQWG, the enrichment ratio was not above 0.25.

On to EIGC, for which the enrichment ratio was not above 0.25.

As for DYQI, the enrichment ratio is not above 0.25. Next, TGVW: not above 0.25. For IPVL, the enrichment ratio was not above 0.25. Next, WCSW: not above 0.25; NEIC: not above 0.25; RAIG: not above 0.25. Next, WYTK: not above 0.25. Next, PNNI: not above 0.25; HDCP: not above 0.25. YHED: the enrichment ratio is not above 0.25. Next, ETSN: not above 0.25; GSIY: 2.3; YTCQ: 1.7. Next, SMRV: not above 0.25; GNCD: not above 0.25. With MQYQ, the enrichment ratio was found to be 3.6. In the case of PHSW, the enrichment ratio was not above 0.25.

Regarding GPIY, the enrichment ratio was not above 0.25.
